Binding signal (log2 normalized intensity) data for 73 sequences are collected here from paper PMC10726135.

The list shows a part of the results. At the low end of the ranking, values are background and their order means little. The protein was read in a cell extract, so binding may be indirect.

The target of this experiment is T1, HNF4alpha8 (COS-7 nuclear extract) (UniProt P41235-5).
T1 sequence: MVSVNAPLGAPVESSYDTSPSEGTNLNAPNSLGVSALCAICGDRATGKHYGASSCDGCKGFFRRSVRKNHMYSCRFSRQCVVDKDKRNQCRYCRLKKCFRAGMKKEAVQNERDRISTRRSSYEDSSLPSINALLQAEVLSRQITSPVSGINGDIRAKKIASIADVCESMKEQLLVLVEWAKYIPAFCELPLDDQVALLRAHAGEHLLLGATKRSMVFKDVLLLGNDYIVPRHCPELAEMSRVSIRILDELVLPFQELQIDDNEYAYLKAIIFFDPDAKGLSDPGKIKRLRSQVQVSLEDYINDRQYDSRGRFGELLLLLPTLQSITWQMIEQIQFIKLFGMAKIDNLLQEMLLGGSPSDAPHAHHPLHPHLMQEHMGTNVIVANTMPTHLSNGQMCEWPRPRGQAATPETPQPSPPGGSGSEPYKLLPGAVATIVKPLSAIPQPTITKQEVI
Kind of experiment: protein-binding microarray. The conditions noted are these: COS-7 nuclear extract on double-stranded Agilent 4x180k PBM; binding buffer, salt, pH and temperature not given; high values mean tight binding; double strand, one strand shown; sequences stand for … in …GCCTAGGGAGATTAGAGTATCGGTCGA
Take GGGAGGAGTTCAGATCACAAAGGAGCTTGT: the binding signal (log2 normalized intensity) was -1.35. Then CCCTCTCCCACTCCCCTCCTCCAGATGGGC, with 4.18; and TCCCTCACTGGAGGTTGAATTCCAAAGGTT, with 4.1; and CTGGGACGTGGCTCAAGATTACAGGTGATC, with 0.759. For TCAGCCTTAACTCAAAAGGCCAAAGTCCAA, the binding signal (log2 normalized intensity) stood at 9.11. The result for GGCAAGTGGTCATGTAGGTGTCTCAGGAAT reads 1.03. The result for CATGAAGCTTCCCCTTTAACCAATATTAGC reads 0.107. Then TGAACTACACAGATTCTGCAAACCTATTAA, with -1.38; and GGGCCGGTACAAAAGGCCAAAGCCAGGGGA, with -1.05. CTTGCCGCATTCCCAGCATTCCAAGTGAGT: the binding signal (log2 normalized intensity) was -0.88. With GGTAGTGGACTCTAAGGCAAAACACCCCTT, the binding signal (log2 normalized intensity) is 2.43. The result for GGACTAAGAATTGCTCAACCTGGACCTCAT reads 1.89.

With TCCCACTAGGTGGCGCTGTTGACCTTGAAA, the binding signal (log2 normalized intensity) was 3.78. The result for TTAGTTCTGCAAACACCCCTCCCCCACACA reads 5.7. Then GAAACTCACATACTGTGGACATAAAAAGAT, with -0.748. Consider CCCAGCTTTCATCTCGGCTGGCTACTGCTC, for which the binding signal (log2 normalized intensity) is -1.29.

Regarding TACTGCAACCTGTTTTACCAGGAAGGGCTT, the binding signal (log2 normalized intensity) is -1.32. Then AAATGGAGCAGCTCTGTATTGAGATAAGCA, with -1.26; and ACAGCAACTAGCAACTTGGACCTTGATAGG, with 4.7. Regarding AGCAGATGGCCAGCCTTTGGACTTTGAACT, the binding signal (log2 normalized intensity) came to 11.2. The result for AATTCCAGCTTCCCCACTTATTACCGGTGT reads 0.859. In the case of TGGACTCTGCAAGGAAGGTGGGGGCCGCCC, the binding signal (log2 normalized intensity) turned out to be 1.06.

With CATTGACTTTGCCTTTTGGCTAAAGTCCAA, the binding signal (log2 normalized intensity) was 4.75. Then AGGGAGGCTTTTGCAGTCACTCTCTAGAAT, with -1.12; and GTCCAAAGGTCAGCAAGCCTGGAGTTCTGA, with 5.05; and ATTGAATGTGTTACACCTGTGTGTACTGGG, with 1.83. The result for CAGCAGTAACCCCCCAGGAGCGAGTCAAGG reads 2.91. Then CTCTAGACTCCAGCTAAAGCCTGCTCGTTG, with -1.38; and GCGAGTCCAGCCAGGTTGCATCAGCTGGGC, with -1.33. Turning to ACACCTGCCTTTGATCAGGGACCTTTGTTC, the binding signal (log2 normalized intensity) turned out to be 5.31. Then CCGGAGCGGCGGACCCGGCGGACCGGGGGG, with -1.27. As for GGCAGGAGTGGGAGGCTGGGGCCTCCTGGC, the binding signal (log2 normalized intensity) is -1.36. In the case of TAGACTTTGGACCTGGCCTGCGGGGTCAGG, the binding signal (log2 normalized intensity) stood at 6.35.

Regarding GGCCGTAAAGATAAGAACGCTAGACACTGG, the binding signal (log2 normalized intensity) was -1.27. Consider CTAGCCTCGAGATAACCCACCTCCGGCCGG, for which the binding signal (log2 normalized intensity) was -1.35.

In the case of GAGTCATAAAGGGCAGGAACATCAGACACA, the binding signal (log2 normalized intensity) was -1.16. The result for TGAGCAGGATTATAGTTTATCTACCTTTGT reads 2.05.

Regarding AACTGACTGCATTCCCTTTCTCCTCCCCTC, the binding signal (log2 normalized intensity) turned out to be 3.16. Then TGTTTGTTTCACTAATGTAGATTTTCTCTG, with 0.729; and AGTGGCCCAGTGTCTCTGGGCGCTGGGAAG, with -0.966. The result for TCTGTTGTCTCTGTAAATAAATGTCATTTA reads 1.21; that for CTGCCTGTGCTGTGGCTGCCAAGACACAGA, -0.998; that for GAGTCTTAGAGTCCAGACACAAAGAGACAA, -1.42. AAGGAGGTGAACTTTGAGACTATCCTTGGA: the binding signal (log2 normalized intensity) came to 4.09. As for TTATTTAGTAGTGGCAAGAGAAGCCCCATG, the binding signal (log2 normalized intensity) is -0.785. Then TGACTGTGATACCAGGGGTCATTTTATGGG, with 3.59; and GGGGAAACAAAATAATAGTTGACCTTTGAG, with 6.69; and AGTGTGCACTTTGCACCTGGGCTGGAAAGG, with 3.95.

On to CTGTTTTGGATTTTAAAAGCCCTCAAATAC, for which the binding signal (log2 normalized intensity) stood at 0.856. Then TCTCCATTCAGCATTGCTTGGGAGCAGTCC, with -0.21; and ACCACAGCGGGGCCTCTGTGTGGGGCTGAT, with -1.33. The result for AAAGCCATGAAGCAATTCTGAGCCCAACCT reads -1.35; that for ATCATCTCTTGTCTGGAATACCTTCTGCAT, 0.321. In the case of AGATCCATTGCATGTGCATTTCACAATAGG, the binding signal (log2 normalized intensity) was 0.639. The result for ACTGTTTGGCCTATGGGAAAACAGGCTCAG reads -1.37; that for AAAGCACTTTGCCCCCAAGAAAAGGTTCCT, 3.78; that for TTTAACTCTTTATCTTTCTCCTACAGCCTG, -1.24.

Turning to GACTACAAATTCCTCAATCCAGTCATCTCA, the binding signal (log2 normalized intensity) was -1.33. With ACCCTGAATGTGTGCTGGCCTGGTTCCTTC, the binding signal (log2 normalized intensity) came out at 1.34. As for ACCTTTGACCCTTTATAATCCCCTATGCTC, the binding signal (log2 normalized intensity) was 4.63. The result for ACTTTTGGCCATCGCACGAGCAAGTTTATT reads -1.31. The result for TGGAGATAACACAACCCCTACTGTACCCTA reads 2.21. The result for TCACCTGGCAAGGCAGCCTCAGCCACACGC reads -1.36. Regarding AGAACTAGCCAGACCTGTTCCTCTGCCCCT, the binding signal (log2 normalized intensity) came to 2.76. Then CTCTCTGTGTCACATACACCTGCGTGTACT, with 1.68. Then AGCTGTGCCCCAGTCCTTCAGTCCTTCCCC, with 2.67. Then TCAGTAAGGAGAGGGGGCGGGGAGAGGGAA, with -1.34; and TGCCATTCTTCCAGTTGTGTGCACAAGAGG, with 1.74. Regarding GCATGGAATGCAGGAGATCCAGTAGGGCGT, the binding signal (log2 normalized intensity) was -0.5. Then ATGACCTTTGACTGAGATGGGAGCAGTGCT, with 3.52.

With GACGGCGGATCCTCCCAGCCTGGAGGAGGG, the binding signal (log2 normalized intensity) is -1.06. Then GCCCTCCCAGCCTATTAACCCCAAATTCCT, with 4.31; and CCGGCATGATCTTGCTCTCTTGTGCTCATG, with 1.34.
